Hit rate of the full screen: of about 48,000 compounds, about 120 (0.25%) were called active. Roughly 4% stayed inconclusive and do not appear here. Calls follow the shape of the dose curve; as a rule, active = well fitted activation curve with a large enough effect; inconclusive = small, poorly fitted or top-dose-only effect, or another doubt; inactive = no such curve, though single readings can be large or run the other way. This is one part of the list.
experiment: Primary qHTS for Identification of Small Molecule Activators of Huntingtin-Antisense Promoter Activity; conditions: HEK293 HTT-AS promoter firefly luciferase reporter, 24 h; series mostly up to 57.5 µM; activity change, positive = activation: at the top concentration; also: nearly all actives have a fitted effect of over 55% in size
Outline: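 HEK293 cells carrying firefly luciferase reporters were seeded at 2,500 per well in Opti-MEM and cultured for 24 h. They were then treated with compounds at up to 57.5 uM final for 24 h at 37 degrees C before Dual-Glo luminescence readout.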
Potency is read from the fitted curve at half-maximal effect.

SMILES	activity change, positive = activation	Potency
COc1ccc(-c2nc(SCC(=O)Nc3ccc4c(c3)OCO4)c(-c3ccc(F)cc3)[nH]2)cc1OC	inactive: -17.7%	
CCOc1ccccc1NC(=O)CCc1nc(-c2cccc(C)c2)no1	inactive: -10.5%	
COc1cc2c(cc1OC)CC(=O)N(CCCN(C)C[C@H]1Cc3cc(OC)c(OC)cc31)CC2	inactive: -2.47%	
Cc1nc2nncn2c(Nc2ccc(F)cc2)c1C	inactive: -33.3%	
CCC(=O)N1CCc2cc(S(=O)(=O)NCCC(=O)NCc3ccc(OC)cc3)ccc21	inactive: 0.962%	
COc1cccc(-n2c(=O)c3sccc3n(Cc3cc(=O)n4cc(Cl)ccc4n3)c2=O)c1	inactive: -15.3%	
CCCCCCCCCCCCOCCOCCOCCOCCOCCOCCOCCOCCOCCO	inactive: -71.7%	
Cc1cc2nc(-c3cccc(NC(=O)COc4ccc(C(C)C)cc4)c3)oc2cc1C		active: 1000 nM
Cc1ccc(N(C)S(=O)(=O)c2c(-c3ccccc3)csc2C(=O)O)cc1	inactive: -10.6%	
COc1ccc(N2CCN(C(=O)c3c(C)oc4nc(C)nc(N5CCCC5)c34)CC2)cc1	inactive: -2.39%	
COc1ccc(-c2nc(C)c(CCNC(=O)c3cccs3)s2)cc1	inactive: 18.6%	
Cc1nc2c([nH]1)CCN(C(=O)c1ccc(NC(=O)c3ccccc3-c3ccccc3)cc1)c1ccccc1-2	inactive: -21.3%	
COc1cc([C@@H]2c3cc4c(cc3[C@H](O)[C@H]3COC(=O)[C@@H]23)OCO4)cc(OC)c1OC	inactive: -25.1%	
COc1cc(Cl)c(C)cc1NC(=O)c1nn(-c2ccc(C)cc2)c(=O)n(C)c1=O	inactive: -5.06%	
CCOc1ccc(S(=O)(=O)N(C(C)=O)c2ccc3oc(C)c(C(=O)OC)c3c2)cc1	inactive: -79.1%	
Cc1ccc(CSc2nc3ccncc3n2Cc2nc(-c3ccc(Cl)cc3)oc2C)cc1	inactive: 9.68%	
CCOc1ccc(N2CC(NC(=O)c3cc4ccccc4o3)CC2=O)cc1 (configuration not stated)	inactive: -6.3%	
COc1cccc(NC(=O)CSc2c(C)cnc3c2c(=O)n(C)c(=O)n3C)c1	inactive: -23.2%	
CCOC(=O)c1ccc(NC(=O)C(=O)NCCc2ccc(OC)cc2)cc1	inactive: 10.6% [at 11.5 µM, percent change from vehicle, -100% = no light]	
COc1ccc2oc(=O)c(C(=O)N3CCN(c4cc(Cl)ccc4Cl)CC3)cc2c1	inactive: -18.8%	
Cc1ccc(C)c(NC(=O)Cn2c(-c3nonc3N)nc3ccccc32)c1	inactive: -25.2%	
COc1ccccc1N1CCN(C(=O)c2cnn(C(C)(C)C)c2C2CCN(C(=O)OC(C)(C)C)CC2)CC1	inactive: -13.9%	
Cc1ccc(C(=O)Nc2cc3cc(Cl)ccc3oc2=O)cc1	inactive: -18.6%	
Cc1ccc(-c2nc(CCNC(=O)C(=O)Nc3ccc(F)cc3F)cs2)cc1	inactive: -4.99%	

SMILES	activity change, positive = activation	Potency
Cc1ccc2c(c1)N(CC(=O)NCCCN1CCCCC1)C(=O)c1cccnc1O2	inactive: -5.71%	
COc1ccccc1CNC(=O)CCCN1C(=O)CCn2nc(-c3cn(C)c4ccccc34)cc21	inactive: -9.41%	
COc1ccccc1NCc1nnc2n1CCCCC2	inactive: 0.0993%	
CC(C)C(=O)Nc1c(C(=O)N2CCN(c3ccccc3F)CC2)oc2ccccc12	inactive: -11%	
Fc1ccc(C(c2nnc(-c3ccccc3)o2)N2CCN(c3ccccc3)CC2)c(Cl)c1 (configuration not stated)	inactive: -29.9%	
Cc1ccc(-c2nc3sc(CCNC(=O)c4ccco4)c(C)n3n2)cc1	inactive: -11.3%	
O=C(NCc1ccc(Cl)cc1)c1ccc2oc(=O)n(Cc3ccccc3)c2c1	inactive: -39.7%	
CCOC(=O)Cn1c(=O)oc2cc(S(=O)(=O)N3CCCC(C)C3)ccc21 (configuration not stated)	inactive: -19.7%	
CCCCn1cc(S(=O)(=O)c2ccc(Cl)cc2)c(=O)c2cc(F)c(N3CCCC(C)C3)cc21 (configuration not stated)	inactive: -13.2%	
CCOC(=O)c1cc(S(=O)(=O)N2CCN(c3cccc(OC)c3)CC2)[nH]n1	inactive: -6.61%	
COC(=O)c1c(-c2ccc(Cl)cc2)noc1N1CCN(c2cccc(C)c2C)CC1	inactive: -20.2%	
CCc1cnc2c(c1SCC(=O)Nc1ccc(OC)c(OC)c1)c(=O)n(C)c(=O)n2C	inactive: -13.4%	
COc1ccc(Nc2cc(C(=O)NCc3cccs3)c3ccccc3n2)cc1	inactive: 9.7%	
CCCCOC(=O)Cn1nnc2sc(-c3ccccc3)cc2c1=O	inactive: -2.12%	
COc1ccc(CCNC(=O)CSc2cn(CCNC(=O)c3ccccc3F)c3ccccc23)cc1OC	inactive: -26.9%	
CN1CCN(C(=O)C(=O)Nc2c3c(nn2-c2cccc(Cl)c2)CSC3)CC1	inactive: -8.24%	
O=C(CSc1ncc(-c2ccccc2)[nH]1)Nc1ccc(F)cc1F	inactive: 5.78%	
COc1cc(C(=O)N2CCC(N3CCN(C)CC3)CC2)ccc1Nc1ncc2c(n1)N(C)c1ccccc1C(=O)N2C	inactive: -6.9%	
CCOC(=O)c1c(C)[nH]c(C)c1S(=O)(=O)N1CCCC(C(=O)NCc2ccc(C)cc2)C1 (configuration not stated)	inactive: 10.5%	
Cc1ccc(Cn2c(=O)n(CCc3ccccc3)c(=O)c3c(C)c(C)sc32)cc1	inactive: -0.473%	
CCc1ccccc1N1C(=O)N(CC(=O)c2ccc(Cl)cc2)c2ccccc2S1(=O)=O	inactive: -27.6%	
COC(=O)c1c(SC)nc2ccccc2c1OCc1ccc(C)cc1	inactive: 5.19%	
Clc1ccc(C(Cn2ccnc2)OCc2ccsc2Cl)c(Cl)c1 (configuration not stated)	inactive	

Source: PubChem BioAssay AID1508624 (National Center for Advancing Translational Sciences (NCATS), 2021)
